The values that follow come from PubChem BioAssay AID1745853 (National Center for Advancing Translational Sciences (NCATS), 2022).

This is one part of the list. The main result of the screen is listed elsewhere. These columns were measured beside it and carry no call.

Holding throughout (test): Primary Screen for Target Class Profiling of Small Molecule Inhibitors of Methyltransferases
Assay [1] has as its target Glycine N-methyltransferase (Homo sapiens) (UniProt Q14749). As to conditions: purified enzyme, MTase-Glo SAH luminescence; measured here: GNMT inhibition; at 40 µM; stronger effect = lower value. A digest of the protocol:
(§1)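 Each enzyme was assayed with SAM and its substrate. SAH formation detected by MTase-Glo luminescence; single-point 40 uM screen[…].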

In assay [2] the target is Guanidinoacetate N-methyltransferase (Homo sapiens) (UniProt Q14353). Particulars: purified enzyme, MTase-Glo SAH luminescence; measured here: GAMT inhibition; at 40 µM; stronger effect = lower value. A digest of the protocol:
as §1

The target in assay [3] is Histamine N-methyltransferase (Homo sapiens) (UniProt P50135). As to conditions: purified enzyme, MTase-Glo SAH luminescence; measured here: HNMT inhibition; at 40 µM; stronger effect = lower value. A digest of the protocol: as §1
Assay [4] has as its target Nicotinamide N-methyltransferase (Homo sapiens) (UniProt P40261). As to conditions: purified enzyme, MTase-Glo SAH luminescence; measured here: NNMT inhibition; at 40 µM; stronger effect = lower value. A digest of the protocol:
as §1

Assay [5] concerns the target Phenylethanolamine N-methyltransferase (Homo sapiens) (UniProt P11086). Particulars: purified enzyme, MTase-Glo SAH luminescence; measured here: PNMT inhibition; at 40 µM; stronger effect = lower value. A digest of the protocol: as §1
On the % scale 0 is the no-effect control and ±100 the full control effect.

`C/C=C(/C)C(=O)OC1C2OC2C2(CO2)C2C3OC(=O)C(C)C3CCC12C` (stereo not given): the activity change, negative = inhibition in assay [1] was 4.24%; in assay [2], 2.84%; in assay [3], 8.58%; in assay [4] it was -9.99%; in assay [5], 0.478%.

Consider `CC(C)NC(=O)NC[C@H]1OC[C@@H](NCc2cnc[nH]2)[C@@H]1O`, for which the activity change, negative = inhibition in assay [1] was -4.74%; in assay [2], -1.96%; in assay [3], -0.103%; in assay [4], -4.17%; in assay [5] it was 1.53%.

In the case of `O=C(c1ccccn1)N1CC(CO)C2(CCNCC2)C1` (stereo not given), the activity change, negative = inhibition in assay [1] was -2.85%; in assay [2] it was -3.75%; in assay [3], -1.02%; in assay [4], -0.673%; in assay [5], -4.51%.

In the case of `Cc1ccc(Cn2c(=O)c3ccccc3n3c(CCC(=O)N4CCN(c5cccc(Cl)c5)CC4)nnc23)cc1`, the activity change, negative = inhibition was -4.05% in assay [1]; 4.34% in assay [2]; 6.03% in assay [3]; 2.2% in assay [4]; 1.7% in assay [5].

In the case of `Cc1ccc(NC(=O)Cn2nc3n(CC(C)C)c(=O)c4ccccc4n3c2=O)cc1C`, the activity change, negative = inhibition in assay [1] is 2.34%; in assay [2], 0%; in assay [3], 5.55%; in assay [4], -1.74%; in assay [5], 1.5%.

As for `COC(=O)c1ncn2c1C(=O)N(Cc1ccccc1C)C(C)(C(=O)NC1CCCCC1)C2` (stereo not given), the activity change, negative = inhibition turned out to be 6.79% in assay [1]; 0% in assay [2]; 7.98% in assay [3]; 9.8% in assay [4]; 4.52% in assay [5].

In the case of `COc1ccc(OC)c(N2C(=O)c3cc4ccccc4n3CC2(C)C(=O)NC2CCCC2)c1` (stereo not given), the activity change, negative = inhibition in assay [1] was found to be 0.404%; in assay [2] it was 4.95%; in assay [3], 1.73%; in assay [4], 1.36%; in assay [5], 1.87%.

`CCCn1c(=O)c2ccc(C(=O)NC3CCCCC3)cc2n2c(=O)n(Cc3ccccc3F)nc12`: the activity change, negative = inhibition was 4.79% in assay [1]; 0% in assay [2]; 8.1% in assay [3]; 3.4% in assay [4]; 6.03% in assay [5].

`CC1(C(=O)NC2CCCCC2)Cn2c(cc3ccccc32)C(=O)N1Cc1cccc(Cl)c1` (stereo not given): the activity change, negative = inhibition is -7.34% in assay [1]; -0.362% in assay [2]; -6.55% in assay [3]; -6.17% in assay [4]; -5.7% in assay [5].

`Cc1ccc(OCC(=O)N2CCC3(CC2)N=C(c2ccc(C)cc2)NO3)cc1`: the activity change, negative = inhibition was -5.96% in assay [1]; -1.57% in assay [2]; -2.98% in assay [3]; -7.03% in assay [4]; -3.42% in assay [5].

In the case of `COC1=CC(=O)O[C@@H](/C=C/c2ccccc2)[C@@H]1O`, the activity change, negative = inhibition is -0.401% in assay [1]; 2.27% in assay [2]; 8.28% in assay [3]; -7.71% in assay [4]; -2.4% in assay [5].

For the molecule `CC(=O)N1CCC(N[C@@H]2CO[C@H](CNS(=O)(=O)c3ccccc3)[C@H]2O)CC1`, the activity change, negative = inhibition is -2.62% in assay [1]; -1.64% in assay [2]; 0.192% in assay [3]; -2.32% in assay [4]; 5.03% in assay [5].

`C[C@@H]1O[C@@H](O[C@H]2[C@H](OC(C#N)c3ccc(O)cc3)O[C@H](CO)[C@@H](O)[C@@H]2O)[C@H](O)[C@H](O)[C@H]1O` (stereo not given in full): the activity change, negative = inhibition was 0% in assay [1]; 6.03% in assay [2]; 8.39% in assay [3]; -4.47% in assay [4]; 6.26% in assay [5].

In the case of `CCOc1ccccc1CNC(=O)c1cc2n(n1)CC(C)(C(=O)NC1CCCC1)N(CC)C2=O` (stereo not given), the activity change, negative = inhibition in assay [1] is -4.65%; in assay [2] it was 0%; in assay [3] it was -2.58%; in assay [4], 3.35%; in assay [5], 4.31%.

`Nc1nc(Cl)nc2c1ncn2C1OC(CO)C(O)C1F` (stereo not given): the activity change, negative = inhibition in assay [1] was -9.82%; in assay [2], -19.8%; in assay [3], -9.65%; in assay [4] it was -25.4%; in assay [5], -16.3%.

Consider `Cc1ccc(C(=O)Cn2nc3n(CC(C)C)c(=O)c4ccc(C(=O)NC5CCCC5)cc4n3c2=O)cc1`, for which the activity change, negative = inhibition in assay [1] stood at 2.63%; in assay [2] it was 0.816%; in assay [3], 5.51%; in assay [4] it was 1.79%; in assay [5], 3.25%.

Turning to `Cc1ccc(NS(=O)(=O)c2cc3[nH]c(=O)[nH]c3cc2C)cc1F`, the activity change, negative = inhibition in assay [1] is 11.7%; in assay [2] it was 0%; in assay [3], 13%; in assay [4], -3.74%; in assay [5], -12.9%.

Turning to `O=C(CCSCc1ccco1)NNC(=O)N1Cc2ccccc2Oc2ccc(Cl)cc21`, the activity change, negative = inhibition in assay [1] was -11.9%; in assay [2] it was 3.16%; in assay [3] it was -0.773%; in assay [4], -8.9%; in assay [5], 3.96%.

`O=C1CN(Cc2cccc(C(F)(F)F)c2)S(=O)(=O)c2ccccc2N1Cc1ccc(Cl)cc1`: the activity change, negative = inhibition in assay [1] is -0.461%; in assay [2], 4.76%; in assay [3], -5.37%; in assay [4], -5.33%; in assay [5], -5.35%.

As to `CC(C)NC(=O)CCc1nnc2n(Cc3ccc(Cl)cc3)c(=O)c3ccccc3n12`, the activity change, negative = inhibition in assay [1] is -1.49%; in assay [2], 0%; in assay [3] it was 7.24%; in assay [4] it was 8.71%; in assay [5] it was -1.85%.

Regarding `Cc1cc(C)cc(NC(=O)Cn2nc3n(CC(C)C)c(=O)c4ccc(C(=O)NC(C)C)cc4n3c2=O)c1`, the activity change, negative = inhibition in assay [1] was -0.48%; in assay [2], 0.473%; in assay [3], -0.894%; in assay [4], 12.8%; in assay [5] it was 3.15%.

In the case of `CC(C)Cn1c(=O)c2ccccc2n2c(=O)n(CC(=O)Nc3ccc(Cl)cc3)nc12`, the activity change, negative = inhibition in assay [1] is -2.88%; in assay [2] it was 2.67%; in assay [3], -2.88%; in assay [4], -8.85%; in assay [5], -5.6%.

On to `C/C(=C/CCC(CO)C1CCC2(C)C3CCC4C(C)(C)C(OC5OC(CO)C(O)C(O)C5O)CC(O)C45CC35CCC12C)COC1OC(CO)C(O)C(O)C1O` (stereo not given), for which the activity change, negative = inhibition is 0% in assay [1]; 10.9% in assay [2]; 0.938% in assay [3]; -4.98% in assay [4]; 6.4% in assay [5].

For the molecule `CC1=C(/C=C/C(C)=C/C=C/C(C)=C/C(=O)Nc2ccc(O)cc2)C(C)(C)CCC1`, the activity change, negative = inhibition in assay [1] was -6.33%; in assay [2], 4.16%; in assay [3] it was -3.3%; in assay [4], -7.8%; in assay [5], 6.78%.

`Cc1nnc2n1CCC(N(C)C(=O)NC1CCCC1)CC2` (stereo not given): the activity change, negative = inhibition was -1.79% in assay [1]; 0.285% in assay [2]; -0.213% in assay [3]; -2.46% in assay [4]; 0.696% in assay [5].

As to `COc1cccc(CNC(=O)C(C)n2ccc3cc(S(=O)(=O)N4CCCCC4)ccc32)c1` (stereo not given), the activity change, negative = inhibition in assay [1] is -0.2%; in assay [2], 5.65%; in assay [3] it was 1.99%; in assay [4] it was -1.18%; in assay [5] it was -1.05%.

As to `CCOC(=O)c1cc2n(n1)CC(C)(C(=O)NC1CCCCCC1)N(c1cc(OC)cc(OC)c1)C2=O` (stereo not given), the activity change, negative = inhibition is -0.807% in assay [1]; 2.08% in assay [2]; -7.54% in assay [3]; -0.843% in assay [4]; -1.34% in assay [5].

For the molecule `COc1ccc(S(=O)(=O)NCc2nc(-c3ccc(OC)c(OC)c3)no2)cc1`, the activity change, negative = inhibition in assay [1] was -8.45%; in assay [2], 0.636%; in assay [3], -7.71%; in assay [4] it was -8.5%; in assay [5], -7.77%.

As to `CCCn1c(=O)c2ccc(C(=O)NCC(C)C)cc2n2c(=O)n(CC(=O)NC3CCCC3)nc12`, the activity change, negative = inhibition in assay [1] worked out at 4.83%; in assay [2] it was 0%; in assay [3] it was 10.4%; in assay [4] it was 0.598%; in assay [5], 0.737%.
